The list shows a part of the results, in another mix than the full data. At the low end of the ranking the order means little.

The assay addresses ZNF721 DBD1 (UniProt Q8TF20-2). Kind of assay: HT-SELEX. Conditions: 20 mM HEPES pH 7, 140 mM KCl, 5 mM NaCl, 1 mM K2HPO4, 2 mM MgSO4, 100 uM EGTA, ZnSO4, 0.1% Tween20; room temperature, 1 h; high values mean tight binding; double strand, one strand shown.
Turning to ACAGAGTACC, the binding signal (relative 10-mer count) came to 0.000367. The result for AAGAAAACAG reads 0.000183; that for AAAAGCAGTA, 0.0204; that for CCTCCCCACC, 0.0111. Regarding CGCTGTTTTA, the binding signal (relative 10-mer count) was 0.000321. AACAGCGTAC registered a binding signal (relative 10-mer count) of 0.000963. The result for CCACCACGCC reads 0.00316; that for AAAAACAGCA, 0.000826; that for AAACAGCGTT, 0.000183.

CAAAGCAGTG registered a binding signal (relative 10-mer count) of 0.000688. AAAAAACAGT: the binding signal (relative 10-mer count) was determined as 0.000826.

Sequence CACCCCCACC gave a binding signal (relative 10-mer count) of 0.0129. The value for AGAAAAACAG was 0.000321. As for AAAAAACAGA, the binding signal (relative 10-mer count) is 0.000596. The result for AAAACAGCAT reads 0.000917; that for AAACAGTGTT, 0.000596.

Sequence CCCACCCGAC yielded a binding signal (relative 10-mer count) of 0.00449. The result for AAAAAACAGC reads 0.00055; that for AAAAACAGGA, 0.000459.

Consider AAGCAGCGTC, for which the binding signal (relative 10-mer count) was 0.000734. For AAAACAGCAC, the binding signal (relative 10-mer count) is 0.000459. The value for AAACAGCACA was 0.000596; that for CGCTGTTTTC was 0.000367; that for AAAGCTATCC was 0.0786. The result for TAAAACAGCA reads 0.000367; that for AAAAAGCAGG, 0.000734. With ACAGCATGAC, the binding signal (relative 10-mer count) worked out at 0.000321. The value for CAAAACAGCG was 0.000321; that for AGAAAACAGC was 0.000321. CTCCCTCCCC had a binding signal (relative 10-mer count) of 0.00927. For the sequence ACAGCGTCTC, the binding signal (relative 10-mer count) stood at 0.000688. As for CACCGCCCCA, the binding signal (relative 10-mer count) was determined as 0.00404. AAAACAGGGT came in with a binding signal (relative 10-mer count) of 0.00055. The sequence GCTGTTTTTA displayed a binding signal (relative 10-mer count) of 0.000321. The result for CCGCCCCCTC reads 0.00573; that for AAAAGAACAG, 0.00055; that for AAAAACTAGC, 0.000367. For the sequence CAGCATCTCC, the binding signal (relative 10-mer count) is 0.000596.

The values are drawn from paper PMC13541613.
